“And” between values parts separate entries of the source, which are not always exact repeats. Equal entries are not always repeated. Among all 420,000 compounds or so, about 64,000 (15%) were called active. The inconclusive results got no clear call from the source; some entries with a clear call stand among them for comparison. The call rests on the fitted dose curve; in most records, active means well fitted inhibition curve with a large enough effect; inconclusive means small, poorly fitted or top-dose-only effect; inactive means flat fitted curve, though single readings scatter. Potencies of inconclusive entries are doubtful fits and often do not repeat.
Experiment: qHTS for Inhibitors of human tyrosyl-DNA phosphodiesterase 1 (TDP1): qHTS in cells in absence of CPT; further: nearly all actives have a fitted effect of over 55% in size
Conditions: DT40 Tdp1-/- hTDP1 cells, no CPT, ATP luminescence, 48 h; activity change, negative = growth inhibition: at 46.2 µM (top of the series) unless noted
Method in brief: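 Chicken DT40 Tdp1-/- cells stably complemented with human TDP1 were seeded at 400 cells/well with DMSO in place of 20 nM camptothecin. After compound pinning, cells grew at least 48 hr at 37 °C; viability read by CellTiter-Glo luminescence.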
On the % scale 0 is the no-effect control and ±100 the full control effect; potency means the concentration at half of the fitted maximal effect; tags describe the fitted curve by direction and shape.

| SMILES | Potency | activity change, negative = growth inhibition |
| --- | --- | --- |
| O=C(Nc1cccc(Cl)c1)c1ccc(F)c(S(=O)(=O)N2CCC3(CC2)OCCO3)c1 | active: 13 µM | – |
| Cc1cc(NC(=O)CCNS(=O)(=O)c2ccc3c(c2)oc(=O)n3C)ccc1Br | inconclusive: 20.6 µM [inhibitor, single point] | – |
| CCN(C(=O)Cn1nnc2sc(-c3ccccc3)cc2c1=O)c1cccc(C)c1 | inconclusive: 25.9 µM [inhibitor, single point] | – |
| COc1ccccc1Nc1nc(N)nc(CN2CC(C)CC(C)C2)n1 (stereo unspecified) | – | inactive: -2.02% |
| O=C(CN(C(=O)c1csnn1)c1cccc(Cl)c1)NC1CCCCC1 | – | inactive: -14.5% |
| O=[N+]([O-])c1ccccc1/C=N/NC1=NCCCCC1 | inconclusive: 16.4 µM [inhibitor, single point] | – |
| O=C(Nc1ccc2oc(-c3ccncc3)nc2c1)c1ccc([N+](=O)[O-])o1 | active: 5.8 µM | – |
| O=C(Oc1coc(CSc2ncccn2)cc1=O)c1ccccc1[N+](=O)[O-] | inconclusive: 25.9 µM [inhibitor, single point] | – |
| FC(F)(F)c1cc(Oc2ccc(Cl)cc2)ncc1-c1nnc(-c2ccc(Cl)cc2)o1 | – | inconclusive: -31.8% [inhibitor] |
| Cc1ccc(S(=O)(=O)c2c(C)nn(C(C)(C)C)c2OC(=O)c2cccs2)cc1 | – | inactive: -23.3% |
| O=C(CSc1nnc2c(Cl)cc(C(F)(F)F)cn12)N(Cc1ccccc1)Cc1ccccc1 | active: 20.6 µM | – |
| Cc1cc(C)n2nc(C(=O)Nc3ccc(S(=O)(=O)N4CCCCC4)cc3)nc2n1 | inconclusive: 23.1 µM [inhibitor, single point] | – |
| c1ccc(-c2ccc3c(c2)NCCN3)cc1 | inconclusive: 16.4 µM [inhibitor, partial curve, poor fit] | – |
| CC1CCN(C(=S)c2ccc([N+](=O)[O-])cc2)CC1 | – | inconclusive: -30% [inhibitor] |
| COc1ccc2cc(CCNS(=O)(=O)c3ccc(NC(C)=O)cc3)c(=O)[nH]c2c1 | – | inactive: -16.1% |
| O=C(COC(=O)c1ccc2ccccc2c1)NCCCc1ccccc1 | – | inactive: -15.7% |
| COc1ccc(-c2ccc(C(=O)Nc3ccc(OC)nc3)c3occc23)c(C)c1 | active: 14.6 µM | – |
| c1ccc(-c2csc(Nc3cccnc3)n2)nc1 | inconclusive: 16.4 µM [inhibitor, partial curve] | – |
| Cc1ccccc1C(=O)N1CCC(C(=O)N(C)CCOc2ccccc2)CC1 | inconclusive: 29.1 µM [inhibitor, single point] | – |
| CC1(C(=O)N2CCCCC2)CCN1C(=O)c1ccccc1CCc1ccccc1 (stereo unspecified) | active: 14.6 µM | – |
| O=C(C1CCN(CCCc2ccccc2)CC1)N(CCc1ccccc1)Cc1ccccc1 | active: 14.6 µM | – |
| CCn1c(CCNC(=O)c2ccc(OC)cc2)nnc1SCc1ccc(Cl)cc1Cl | inconclusive: 18.4 µM [inhibitor, single point] | – |
| CC1=NN(C(=O)Cn2ccc([N+](=O)[O-])n2)C(O)(C(F)(F)F)C1 (stereo unspecified) | active: 5.8 µM | – |
| CC#CCOC(=O)C1=CCCN(C)C1 | inactive and inconclusive: 29.1 µM [inhibitor, single point] | – |

| SMILES | Potency | activity change, negative = growth inhibition |
| --- | --- | --- |
| O=C(/C=C/NCC(=O)c1ccccc1)c1ccc(Br)cc1 | inconclusive: 16.4 µM [inhibitor, single point] | – |
| O=C(Nc1ccc(F)cc1F)c1cc2nc(-c3ccco3)cc(C(F)(F)Cl)n2n1 | – | inactive: -9.1% |
| COc1cc(CN2CCCC(N3CCN(c4ccccc4C)CC3)C2)ccc1O (stereo unspecified) | inconclusive: 23.1 µM [inhibitor, single point] | – |
| COc1ccc(S(=O)(=O)N2CCC(C(=O)NCCCN3CCOCC3)CC2)cc1 | – | inactive: -2.71% |
| CCOc1ccc(Br)cc1C1C(C(=O)OC)=C(N)Oc2cc(N(C)C)ccc21 (stereo unspecified) | inconclusive: 29.1 µM [inhibitor, single point] | – |
| Cc1cccc(CNc2ncncc2-c2ccccc2Cl)c1 | inconclusive: 25.9 µM [inhibitor, single point] | – |
| Cc1nc2ccccc2c2nc3ccccc3n12 | active: 20.6 µM | – |
| Cc1cccc(C)c1NC(=O)C(c1ccccc1)N1CCOCC1 (stereo unspecified) | – | inactive: -13.1% |
| COC(=O)CN1CCN(C(=O)c2ccc(F)cc2)c2ccccc2C1 | – | inactive: -10.8% |
| COC(=O)c1cnn2c(C)c(Cc3c(C)cc(C)cc3C)c(C)nc12 | – | inactive: -19.8% |
| O=C(Nc1nnc(S(=O)(=O)N2CCCc3ccccc32)s1)c1ccccc1 | inconclusive: 29.1 µM [inhibitor, single point] | – |
| O=C(NCCC(c1ccccc1)c1ccco1)c1cccs1 (stereo unspecified) | inconclusive: 5.8 µM [inhibitor, partial curve] | – |
| C/C(=N\NC(=O)c1cc(-c2ccncc2)nc2ccccc12)c1ccc(N2CCOCC2)cc1 | inconclusive: 18.4 µM [inhibitor, single point] | – |
| CCN(CC)c1ccc2cc(C(=O)c3cccs3)c(=O)oc2c1 | inconclusive: 29.1 µM [inhibitor, single point] | – |
| Cc1c(C(=O)Nc2ccccc2)sc2nc3n(c(=O)c12)CCCCC3 | inconclusive: 23.1 µM [inhibitor, single point] | – |
| COc1ccc(S(=O)(=O)Nc2c(NC3CCCCC3)c3ccccc3oc2=O)cc1 | – | inactive: -22.5% |
| Cc1ccc(Sc2c(C)[nH]n(C(C)(C)C)c2=O)cc1 | – | inactive: -11.3% |
| CC(C)CCn1c(SCCc2ccccc2)nc2c1c(=O)[nH]c(=O)n2C | inconclusive: 14.6 µM [inhibitor, partial curve] | – |
| CCN(CC)S(=O)(=O)c1ccc2c(c1)c(=O)c(C(=O)N1CCN(c3cccc(C)c3)C(C)C1)cn2C (stereo unspecified) | inconclusive: 32.6 µM [inhibitor, single point] | – |
| Cc1ccc(CNC(=O)CN(c2ccc(C)cc2)S(=O)(=O)c2c(C)nn(C)c2C)cc1 | inconclusive: 29.1 µM [inhibitor, single point] | – |
| COc1ccc(C(=O)NCc2cc(C)nc3ccccc23)cc1 | inconclusive: 25.9 µM [inhibitor, single point] | – |
| COc1cccc(C(C(=O)NC2CCCCC2)N(Cc2ccco2)C(=O)c2ccccn2)c1 (stereo unspecified) | inconclusive: 29.1 µM [inhibitor, single point] | – |
| Cc1ccc2c(=O)cc(C(=O)Nc3ccc(S(=O)(=O)N(C)Cc4ccccc4)cc3)oc2c1 | inconclusive: 11.6 µM [inhibitor, partial curve] | – |
| O=C(c1cccs1)N(c1ccc(F)cc1)C1C=CS(=O)(=O)C1 (stereo unspecified) | – | inactive: 0.0013% |

| SMILES | Potency | activity change, negative = growth inhibition |
| --- | --- | --- |
| Cc1ccc(SC(C)C(=O)O/N=C(\N)c2ccncc2)cc1 (stereo unspecified) | – | inactive: -21.8% |
| Cc1cc(/C=N/Nc2ncnc(N)c2[N+](=O)[O-])c(C)n1-c1ccccc1 | inconclusive: 18.4 µM [inhibitor, partial curve, poor fit] | – |
| CCNC(=O)/C(C#N)=C/c1c(N2CCN(c3ccc(OC)cc3)CC2)nc2c(C)cccn2c1=O | active: 20.6 µM | – |
| O=C1C(=O)N(c2ccccc2)C(c2ccccc2)C1c1ccccc1 (stereo unspecified) | – | inactive: 10.2% |
| CCCCn1c(C(C)NC(=O)c2ccccc2)nc2ccccc21 (stereo unspecified) | inconclusive: 29.1 µM [inhibitor, single point] | – |
| C[C@@H]1CN([C@@H](C)CO)C(=O)CCCn2nncc2CO[C@H]1CN(C)Cc1cccc(C(F)(F)F)c1 | – | inactive: -2.07% |
| COC(=O)C1CCN(C(=O)COC(=O)CNC(=O)c2ccc(Cl)cc2Cl)CC1 | inconclusive: 6.51 µM [inhibitor, single point] | – |
| Cc1nc(Nc2cccc(C(C)O)c2)c2nnn(Cc3ccc(F)cc3)c2n1 (stereo unspecified) | inconclusive: 25.9 µM [inhibitor, single point] | – |
| COc1ccc(C2CC(=O)N(CCCN(C)CCc3ccc(OC)c(OC)c3)C2)cc1 (stereo unspecified) | inconclusive: 29.1 µM [inhibitor, single point] | – |
| O=C(N/C(=C/c1ccccc1)C(=O)N1CCCCC1)c1ccccc1 | inconclusive: 16.4 µM [inhibitor, partial curve, poor fit] | – |
| COc1ccccc1-c1cc2nc(C)c(CCC(=O)NCc3cccc(Cl)c3)c(C)n2n1 | active: 18.4 µM | – |
| CC(=O)c1ccc(NC(=O)CN(C)S(=O)(=O)c2cccc3nsnc23)cc1 | – | inactive: 0.117% |
| CCOc1cccc(C(=O)Nc2ccc(NC(=O)c3ccccc3)c(C)c2)c1 | inconclusive: 16.4 µM [inhibitor, single point] | – |
| CCOC(=O)c1[nH]c2c(c1-c1ccccc1)C(=O)CC(c1ccc(OC)c(OC)c1)C2 (stereo unspecified) | inconclusive: 29.1 µM [inhibitor, single point] | – |
| O=c1oc(-c2ccccc2)c(-c2ccccc2)c2ccccc12 | inconclusive: 14.6 µM [inhibitor, partial curve] | – |
| Cc1noc(C)c1-c1nc(NCc2cccnc2)c2ccccc2n1 | inconclusive: 25.9 µM [inhibitor, single point] | – |
| Cc1cccc(-c2noc(CN(C)C(=O)c3ccoc3C)n2)c1 | inconclusive: 25.9 µM [inhibitor, single point] | – |
| CC1(C)Cc2ccccc2C(NNC(=O)c2ccccn2)=N1 | active: 20.6 µM | – |
| O=c1cc(-c2ccc(O)cc2)oc2cccc(O)c12 | active: 29.9 µM | – |
| COC(=O)[C@H](C(C)C)N(Cc1ccccc1)S(=O)(=O)CCN1CCN(c2ccccc2)CC1 | inconclusive: 20.6 µM [inhibitor, single point] | – |
| CC1C(=O)N(Cc2cn(CC3CCCCC3)nn2)CCS(=O)(=O)N1Cc1ccc(-c2ccc(F)nc2)cc1 (stereo unspecified) | – | inactive: -24% |
| CCOc1cccc(C2CC(=O)Nc3cc(OC)c(OC)cc32)c1 (stereo unspecified) | inconclusive: 18.4 µM [inhibitor, single point] | – |
| CCCOc1cccc(C(=O)N(Cc2ccc(OC)c(OC)c2)C2CCS(=O)(=O)C2)c1 (stereo unspecified) | – | inactive: -10.2% |

Reference: PubChem BioAssay AID686978 (National Center for Advancing Translational Sciences (NCATS), 2013)
